# Reference: PMC6919601, “Identification of Plasmodium dipeptidyl aminopeptidase allosteric inhibitors by high throughput screening” (PLoS ONE, 2019)
# “And” between values parts separate entries of the source, which are not always exact repeats. Equal entries are not always repeated. In all, about 110,000 compounds went through this assay and about 230 (0.21%) showed an effect of 50% or more. The list shows a part of the results.
# Target: DPAP1 (Plasmodium falciparum, UniProt Q8IIJ9)
# Experiment: primary screen, percent inhibition; read by cleavage of a fluorogenic dipeptide substrate; higher = more effect of the substance
# Set-up: species or system P. falciparum D10 trophozoite lysates; single well
# 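Further: 30 min substrate incubation versus DMSO and 10 µM JCP410 controls.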
# Chain of DPAP1 (Q8IIJ9 whole entry, looked up): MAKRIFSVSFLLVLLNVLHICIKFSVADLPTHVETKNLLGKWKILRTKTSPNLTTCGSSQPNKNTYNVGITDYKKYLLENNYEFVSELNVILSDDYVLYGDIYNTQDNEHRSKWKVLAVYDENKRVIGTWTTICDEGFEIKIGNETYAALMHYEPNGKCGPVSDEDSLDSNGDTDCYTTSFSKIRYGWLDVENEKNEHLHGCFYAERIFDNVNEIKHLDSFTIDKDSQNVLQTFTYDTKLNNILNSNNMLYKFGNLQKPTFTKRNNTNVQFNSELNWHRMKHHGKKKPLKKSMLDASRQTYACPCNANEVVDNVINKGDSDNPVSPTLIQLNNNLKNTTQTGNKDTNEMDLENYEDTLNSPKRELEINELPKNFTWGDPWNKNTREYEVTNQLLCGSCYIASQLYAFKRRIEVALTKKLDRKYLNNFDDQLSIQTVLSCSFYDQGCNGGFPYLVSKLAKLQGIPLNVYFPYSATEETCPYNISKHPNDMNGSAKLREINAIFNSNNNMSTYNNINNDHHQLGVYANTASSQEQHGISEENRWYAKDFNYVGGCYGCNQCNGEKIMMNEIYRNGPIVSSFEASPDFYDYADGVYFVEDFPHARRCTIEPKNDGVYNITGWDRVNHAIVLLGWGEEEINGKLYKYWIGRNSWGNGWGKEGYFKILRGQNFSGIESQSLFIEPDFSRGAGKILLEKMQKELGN
row,Compound,% Inhibition @ 10 uM
1,c1sc2c(c1CN1CCN(C3CCCCC3)CC1)CCCC2,8.3%
2,O=C(NCc1ccc2c(c1)OCO2)C(Cc1ccccc1)n1cccc1 (centres unmarked),-7.99%
3,CC1(C)CC2=Nc3nc(O)nc(O)c3C(c3ccc(Cl)cc3Cl)C2=C(O)C1 (centres unmarked),-5.96%
4,COC(=O)C1=C(C)N(C)C(C)=C(C(=O)OC)C1c1ccc(-c2ccccc2)cc1,1.26%
5,COc1ccc(/C=C2\SC(=S)N(C3CCS(=O)(=O)C3)C2=O)cc1 (centres unmarked),1.83%
6,CCOC(=O)C1=C(C)N(c2ccc(OC)cc2)C(=O)/C1=C\c1ccc(Cl)cc1,-14.2%
7,COc1ccc(NC(=O)CSCc2c(Cl)cccc2Cl)c(OC)c1,6.24%
8,COC(C(=O)N1CCCCCC1)(c1ccccc1)c1ccccc1,5.37%
9,CCOc1ccc(NS(=O)(=O)c2ccc(NC(=O)CC)cc2)cc1,-3.06%
10,Oc1nc2ccccc2n1C1CCNCC1,5.54%
11,O=C(CN1C(=O)c2ccccc2S1(=O)=O)Nc1ccccc1C(=O)NC1CCCCC1,-3.43%
12,COc1cc2c(c(OC)c1OC)COC2=O,0.962%
13,O=C(c1ccccc1)N1CCN(C(=O)c2ccco2)CC1,1.7%
14,C=CCC(c1ccccc1F)N(CCN1CCOCC1)C(=O)Nc1cccc(Cl)c1 (centres unmarked),-4.12%
15,CC(C)C[C@H](NC(=O)c1cccc(-c2cccc(S(C)(=O)=O)c2)c1)C(=O)NCC#N,-0.207%
16,Cc1cc(=O)n2ccc(CN3CCOCC3)c(O)c2n1,2.65% and -4.21%
17,COc1ccc(C(=O)Nc2ccc(C(C)C)cc2)c(OC)c1,-4.15%
18,COc1ccc(OC)c(S(=O)(=O)c2c(C)cc(C)cc2C)c1,-4.43%
19,O=C(CCC(=O)N1CC=C(c2c[nH]c3ccccc23)CC1)NCCc1ccc(Cl)cc1,4.92%
20,O=C(O)c1ccc2c(c1)C(=O)N(c1ccc(Cc3ccncc3)cc1)C2=O,-0.185%
21,Cc1cc(C)n2nc(C(=O)NCc3ccccc3)cc2n1,0.215%
22,Cc1c(Cl)c(C(F)(F)F)nn1CC(=O)N1CCOCC1,0.51%
23,CC(C)CC(=O)Nc1nn2c(-c3ccco3)nnc2s1,-6.36%
24,CCOC(=O)c1cnc2c(-c3ccccc3)cnn2c1N,-5.53%
25,CN1/C(=C/C(=O)c2ccco2)C(C)(C)c2ccccc21,1.87%
26,O=C(Nc1ccccc1)Nc1ccc2c(c1)C(=O)c1ccccc1-2,2.58%

row,Compound,% Inhibition @ 10 uM
1,c1ccc2c(c1)CCC(NCCN1CCCCC1)C2 (centres unmarked),-1.5%
2,CC(=O)c1cccc(-n2cccc2)c1,1.2%
3,COc1ccc(-c2nccnn2)cc1,2.21%
4,O=C(Cc1noc2ccccc12)NCc1cccnc1,-3.49%
5,O=C(NCc1ccccc1)c1cc(-c2cccs2)on1,-2.55%
6,CCOC(=O)N1CCN(CC(O)COc2ccc(C)cc2C(C)(C)C)CC1 (centres unmarked),0.291%
7,CCn1c(=O)c(C(=O)Nc2ccc(F)cc2)c(O)c2ccccc21,0.909%
8,Cc1ccc(CS(=O)(=O)Cc2ccc(C(=O)NC(C)c3ccccc3)o2)cc1 (centres unmarked),2.18%
9,Cc1ccc(N2C(=O)C(Cl)=C(N3CCOCC3)C2=O)c(C)c1,-1.64%
10,O=C(Nc1ccc(F)cc1F)c1ccc(Cn2cc(Br)cn2)cc1,0.907% and 4.08%
11,CC1CCc2c(sc3ncnc(Cl)c23)C1 (centres unmarked),-4.93%
12,CC(Nc1nc(-c2ccccc2)nc2ccccc12)c1ccccc1 (centres unmarked),5.37%
13,CCCS(=O)(=O)c1ncc(Cl)c(C(=O)Nc2nnc(SCc3ccccc3C)s2)n1,3.77%
14,COc1cc(CNc2ccc(N3CCN(C(C)=O)CC3)cc2)ccc1OCc1ccccc1,0.727%
15,CCNC(=O)c1cc2c(=O)n3cc(C)ccc3nc2n(CC)c1=N,1.97%
16,COc1ccc(C2C(C#N)=C(N)Oc3[nH]nc(C)c32)cc1OCc1ccc(Cl)cc1 (centres unmarked),-2.64%
17,CCCOc1cc(/C=C(/C#N)C(N)=S)ccc1OC,0.777%
18,Cc1ccc(S(=O)(=O)N(CC(=O)Nc2ccc3c(c2)OCO3)c2ccccc2)cc1,5.85%
19,COCC(=O)Nc1nc2nc(C)c(Cc3ccccc3)c(O)n2n1,-3.08%
20,O=C(CCN1C(=O)c2ccccc2C1=O)N1CCN(Cc2ccc(Cl)cc2Cl)CC1,-5.28%
21,O=C(Nc1cccc(NC(=O)c2ccco2)c1)c1ccco1,1.7%
22,COCCO/C(O)=C1/C(C)=NC2=C(C(=O)CC(C)(C)C2)C1c1ccc(Br)cc1 (centres unmarked),-3.14%
23,O=C(c1cc(-c2ccc(Br)cc2)nc2ccccc12)N1CCOCC1,-0.251%
24,COc1ccc(S(=O)(=O)N2CCN(C(=O)c3ccc(OC)c(OC)c3)CC2)cc1,2.94%
25,Cn1nc(CC(=O)NC2CCCCCC2)c2ccccc2c1=O,2.8%
26,O=C(CCNc1c(N2CCCC2)c(=O)c1=O)NCCc1ccc(Cl)cc1,-3.51%

row,Compound,% Inhibition @ 10 uM
1,Cc1ccc(NC(=O)c2c(C)nc3ccccn23)cc1,-1.75%
2,CCS(=O)(=O)N1CCC(C(=O)N2CCN(Cc3ccccc3)CC2)CC1,3.79%
3,CCn1cc(CCC(=O)NCCc2ccccc2)c2ccccc21,3.54%
4,COc1cc(C(=O)Nc2c(C(=O)c3ccccc3)oc3ccccc23)cc(OC)c1OC,-1.11%
5,CC(=O)C1=C(O)C(=O)N(c2ccc(O)cc2)C1c1ccc(F)cc1 (centres unmarked),0.993%
6,CCOC(=O)N1CCN(CC2CCCCC2)CC1,1.08%
7,Cc1ccc(Cn2nnc3c(=O)n(CC(=O)N4CCOCC4)cnc32)cc1,-0.644%
8,CCOC(=O)c1sc(NC(=O)C2COc3ccccc3O2)c(C(=O)OCC)c1C (centres unmarked),2.92%
9,CCOc1ccccc1C(=O)Nc1sc(C)c(C)c1C#N,-0.736%
10,CN1C(=O)C2(C(C#N)=C(N)OC3=C2C(=O)CC(C)(C)C3)c2cc(Br)ccc21 (centres unmarked),-0.864%
11,C=CCNc1oc(/C=C/c2cc(OC)c(OC)c(OC)c2)nc1C#N,-0.808%
12,CN(C)CCNc1ncnc2[nH]cnc12,-1.52%
13,N#Cc1ccc(-c2ccc(OCC(=O)Nc3ccc(Br)cn3)cc2)cc1,-1.88%
14,CCOc1ccc2oc(=O)cc(CN3CCN(Cc4ccccc4)CC3)c2c1,-3.49%
15,Cc1c(Cl)cccc1N1C(=O)C2C3C=CC(O3)C2C1=O (centres unmarked),4.98%
16,CCc1ccc(-c2cc3c(=O)n(CC(=O)N4CCC5(CC4)OCCO5)nc(C)n3n2)cc1,-2.85%
17,Cc1onc(-c2ccccc2)c1C(=O)NCc1ccc(F)cc1,-2.6%
18,CCc1ccccc1NC(=O)c1ccc(Cl)cc1,-3.65%
19,COc1ccc(-c2cc(C(=O)Nc3ccc4c(c3)OCO4)c3ccccc3n2)cc1OC,2.82%
20,Cc1cc(C)c2c(N)c(C(=O)O)sc2n1,13.2%
21,COCCNC(=S)N1CCc2cc(OC)c(OC)cc2C1COc1ccc(F)cc1 (centres unmarked),-0.363%
22,CCCN(CCC)C(=O)c1c(C)nn(-c2ccc(C)cc2)c1-n1cccc1,-7.05%
23,O=C(NCCC1=CCCCC1)C1CCN(c2cnccn2)CC1,-0.946%
24,CCN(CC)C(=O)C1CCCN(CCc2ccccc2)C1 (centres unmarked),-3.15%
25,CCC(Cc1ccccc1)NC(=O)Cn1ncc2c3ccccc3n(C)c2c1=O (centres unmarked),-0.23%
26,Cc1cc(=O)n2c(n1)CC(c1ccccc1)=N2,3.83%

row,Compound,% Inhibition @ 10 uM
1,CCOC(=O)N1CCN(C(=O)CSc2nnc(-c3ccccc3)o2)CC1,0.738%
2,N#CC1=C(N)Oc2c(O)nc(O)nc2C1c1ccc([N+](=O)[O-])cc1 (centres unmarked),1.7%
3,CC(C)C1=NN2C(=N)/C(=C/c3cccs3)C(=O)N=C2S1,-2.87%
4,COc1ccc(Cl)cc1NC(=O)CN(C1CCCCC1)S(C)(=O)=O,-1.51%
5,N#CC1=C(N)Oc2[nH]nc(-c3ccc(Br)cc3)c2C1c1cccs1 (centres unmarked),5.67%
6,CC1=C(C(=O)Nc2cccnc2)C(c2cccs2)n2nc(SCc3ccccc3)nc2N1 (centres unmarked),-1.2%
7,Cc1ccc(S(=O)(=O)NC2(C(F)(F)F)NC(=O)N(C)C2=O)cc1 (centres unmarked),0.221%
8,O=c1ccc2ccc3occc3c2o1,-0.502%
9,CCOc1ccc(C(=O)Nc2ccc(OC)cc2OC)cc1,4.53%
10,COCc1cc(C)nc2sc(C(=O)N(Cc3ccccc3)Cc3ccccc3)c(N)c12,2.7%
11,CCOc1cc(/C=N/N=C(\N)c2nonc2N)cc(Br)c1O,0.503%
12,COc1ccc(-n2c(C)cc(/C=C3\C(=N)N4N=C(S(C)(=O)=O)SC4=NC3=O)c2C)cc1,-1.54%
13,O=C(Cn1ncn2nc(-c3ccco3)cc2c1=O)NCc1ccc2c(c1)OCO2,0.623%
14,COc1ccc(CNC(=O)c2c(OC)cccc2OC)cc1,1.96%
15,CC(C)Cc1ccc(S(=O)(=O)N2CCc3ccccc3C2)cc1,0.457%
16,Cc1cc(C)c2nc(N3CCCC(C(=O)NCc4ccco4)C3)sc2c1 (centres unmarked),3.4%
17,CCCCN(C)C(=O)c1cc(-c2ccc(OC)cc2)[nH]n1,2.28%
18,O=C1C=CC(=NOC(=O)c2ccc(Cl)cc2)C=C1,-1.6%
19,Cc1cccc(C2=N/C(=C\c3ccccc3C(F)(F)F)C(=O)O2)c1,6.56%
20,Cc1ccc(C2CC(=O)NC(=O)S2)cc1 (centres unmarked),8.63%
21,O=C(O)/C=C/c1ccc(-c2cccc(C(F)(F)F)c2)o1,3.13%
22,CCCOc1ccccc1C1NC(=O)NC(C)=C1C(=O)OCCc1ccccc1 (centres unmarked),4.1%
23,O=C(Cn1ncc2c3ccccc3n(Cc3ccccc3)c2c1=O)N1CCN(Cc2ccccc2)CC1,4.95%
